In all, about 2,900 compounds were measured (“NF-kB SEAP reporter activity, fold change vs agonist alone”: median about 0.99, highest 2% from about 2.6 on). The list shows a part of the results.
How the values were obtained:
RAW-Dual [1] = assay: NF-kB SEAP reporter activity, fold change vs agonist alone; higher = enhanced NF-kB activity; details: library stock concentration (final ~1000-fold dilution): 10 mM
How it was run: (§1)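 After 50 nL of library stock was delivered by pin tool to RAW-Dual macrophages (50,000 cells/well, DMEM, 384-well plates), a PRR agonist was added 1 h later and the plates were kept at 37 °C, 5% CO2. Twenty hours later, IRF was read from supernatant by QuantiLuc luminescence and NF-κB by QuantiBlue absorbance at 620 nm. Reporter activity is stated as fold change over agonist-alone wells. Wells with IncuCyte confluency under 70% of agonist controls in both mask sets were counted as cytotoxic.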

RAW-Dual [2] = assay: NF-kB SEAP reporter activity, fold change vs agonist alone; cytotoxicity flag (confluency mask): not cytotoxic; higher = enhanced NF-kB activity
How it was run: as §1

RAW-Dual [3] = assay: NF-kB SEAP reporter activity, fold change vs agonist alone; cytotoxicity flag (confluency mask): cytotoxic (confluency <70% of control); higher = enhanced NF-kB activity
How it was run: as §1

[4] = cytotoxicity flag (confluency mask): not cytotoxic, agonist: Imiquimod (TLR7) […]
[5] = cytotoxicity flag (confluency mask): not cytotoxic, agonist: MPLA (TLR4) […]
[6] = agonist: ODN 1826 (TLR9) 0.5 ug/mL
[7] = agonist: Pam2CSK4 (TLR2/6) 0.1 ug/mL
[8] = agonist: Pam3CSK4 (TLR2/1) 0.1 ug/mL
[9] = cytotoxicity flag (confluency mask): cytotoxic (confluency <70% of control), agonist: Imiquimod (TLR7) […]
[10] = cytotoxicity flag (confluency mask): cytotoxic (confluency <70% of control), agonist: MPLA (TLR4) […]

Q: With CC(C(=O)Nc1ccc(Cl)cc1)C1CCC(c2ccnc3ccc(F)cc23)CC1 (centres undefined) as the molecule, how does the “NF-kB SEAP reporter activity” value (RAW-Dual [1]; [4]) read?
A: 1.51

Q: What about the “NF-kB SEAP reporter activity” value (RAW-Dual [1]; [5]) of the same molecule?
A: 1.55

Q: How did the “NF-kB SEAP reporter activity” value (RAW-Dual [2]; agonist: LPS (TLR4) 0.1 ug/mL) turn out when CC(C(=O)Nc1ccc(Cl)cc1)C1CCC(c2ccnc3ccc(F)cc23)CC1 (centres undefined) (library stock concentration (final ~1000-fold dilution): 10 mM) was run?
A: 0.974

Q: And the “NF-kB SEAP reporter activity” value (RAW-Dual [2]; [6])?
A: 1.05

Q: And the “NF-kB SEAP reporter activity” value (RAW-Dual [2]; [7])?
A: 0.52

Q: And the “NF-kB SEAP reporter activity” value (RAW-Dual [2]; [8])?
A: 0.738

Q: Which “NF-kB SEAP reporter activity” value (RAW-Dual [1]; [5]) does the source give for COc1cc2c(cc1OC)C(=O)C(CC1CCN(Cc3ccccc3)CC1)C2 (centres undefined) here?
A: 1.14

Q: COc1cc2c(cc1OC)C(=O)C(CC1CCN(Cc3ccccc3)CC1)C2 (centres undefined) (library stock concentration (final ~1000-fold dilution): 10 mM) was tested. Which “NF-kB SEAP reporter activity” value (RAW-Dual [2]; agonist: LPS (TLR4) 0.1 ug/mL) did it give?
A: 0.889

Q: And the “NF-kB SEAP reporter activity” value (RAW-Dual [2]; [6])?
A: 1.27

Q: What about the “NF-kB SEAP reporter activity” value (RAW-Dual [2]; [7]) of the same molecule?
A: 0.995

Q: And the “NF-kB SEAP reporter activity” value (RAW-Dual [2]; [8])?
A: 0.885

Q: For Cc1cc(N2CCCCC2)nc2ccccc12 (library stock concentration (final ~1000-fold dilution): 10 mM), which “NF-kB SEAP reporter activity” value (RAW-Dual [2]; agonist: LPS (TLR4) 0.1 ug/mL) is on record?
A: 1.39

Q: What about the “NF-kB SEAP reporter activity” value (RAW-Dual [2]; [6]) of the same molecule?
A: 1.05

Q: And the “NF-kB SEAP reporter activity” value (RAW-Dual [2]; [7])?
A: 1.08

Q: What about the “NF-kB SEAP reporter activity” value (RAW-Dual [2]; [8]) of the same molecule?
A: 1.36

Q: What does the source list for Cc1cc(N2CCCCC2)nc2ccccc12?
A: NF-kB SEAP reporter activity (RAW-Dual [1]; [4]): 0.896; NF-kB SEAP reporter activity (RAW-Dual [1]; [5]): 1.21

Q: How did the “NF-kB SEAP reporter activity” value (RAW-Dual [1]; [4]) turn out when C[C@@H](O)CCOC(=O)C[C@@H](C)O was run?
A: 0.899

Q: And the “NF-kB SEAP reporter activity” value (RAW-Dual [1]; [5])?
A: 1.02

Q: With C[C@@H](O)CCOC(=O)C[C@@H](C)O (library stock concentration (final ~1000-fold dilution): 10 mM) as the molecule, how does the “NF-kB SEAP reporter activity” value (RAW-Dual [2]; agonist: LPS (TLR4) 0.1 ug/mL) read?
A: 0.864

Q: And the “NF-kB SEAP reporter activity” value (RAW-Dual [2]; [6])?
A: 0.931

Q: What about the “NF-kB SEAP reporter activity” value (RAW-Dual [2]; [7]) of the same molecule?
A: 0.907

Q: What about the “NF-kB SEAP reporter activity” value (RAW-Dual [2]; [8]) of the same molecule?
A: 0.844

Q: Cc1cc(C)cc(Oc2ccc(CNC(=O)C(C)N)cc2C)c1 (centres undefined) (library stock concentration (final ~1000-fold dilution): 10 mM) was tested. Which “NF-kB SEAP reporter activity” value (RAW-Dual [2]; agonist: LPS (TLR4) 0.1 ug/mL) did it give?
A: 1.3

Q: And the “NF-kB SEAP reporter activity” value (RAW-Dual [2]; [6])?
A: 0.9

Q: What about the “NF-kB SEAP reporter activity” value (RAW-Dual [2]; [7]) of the same molecule?
A: 0.484

Q: And the “NF-kB SEAP reporter activity” value (RAW-Dual [2]; [8])?
A: 0.732

Q: What does the source list for Cc1cc(C)cc(Oc2ccc(CNC(=O)C(C)N)cc2C)c1 (centres undefined)?
A: NF-kB SEAP reporter activity (RAW-Dual [1]; [4]): 1.24; NF-kB SEAP reporter activity (RAW-Dual [1]; [5]): 1.3

Q: How did the “NF-kB SEAP reporter activity” value (RAW-Dual [1]; [4]) turn out when O=C(O)CCc1c[nH]c2ccccc12 was run?
A: 0.934

Q: What about the “NF-kB SEAP reporter activity” value (RAW-Dual [1]; [5]) of the same molecule?
A: 0.964

Q: With O=C(O)CCc1c[nH]c2ccccc12 (library stock concentration (final ~1000-fold dilution): 10 mM) as the molecule, how does the “NF-kB SEAP reporter activity” value (RAW-Dual [2]; agonist: LPS (TLR4) 0.1 ug/mL) read?
A: 1.08

Q: What about the “NF-kB SEAP reporter activity” value (RAW-Dual [2]; [6]) of the same molecule?
A: 1.06

Q: And the “NF-kB SEAP reporter activity” value (RAW-Dual [2]; [7])?
A: 1.03

Q: And the “NF-kB SEAP reporter activity” value (RAW-Dual [2]; [8])?
A: 0.898

Q: For CC1(COc2ccc3c(c2)ncn3-c2ccc3cccc(N4CCC(N)CC4)c3n2)COC1 (library stock concentration (final ~1000-fold dilution): 10 mM), which “NF-kB SEAP reporter activity” value (RAW-Dual [3]; agonist: LPS (TLR4) 0.1 ug/mL) is on record?
A: 0.769

Q: What about the “NF-kB SEAP reporter activity” value (RAW-Dual [3]; [6]) of the same molecule?
A: 1.59

Q: And the “NF-kB SEAP reporter activity” value (RAW-Dual [3]; [7])?
A: 1.81

Q: What about the “NF-kB SEAP reporter activity” value (RAW-Dual [3]; [8]) of the same molecule?
A: 1.6

Q: How did the “NF-kB SEAP reporter activity” value (RAW-Dual [1]; [9]) turn out when CC1(COc2ccc3c(c2)ncn3-c2ccc3cccc(N4CCC(N)CC4)c3n2)COC1 was run?
A: 2.9

Q: What about the “NF-kB SEAP reporter activity” value (RAW-Dual [1]; [10]) of the same molecule?
A: 1.43

Q: Which “NF-kB SEAP reporter activity” value (RAW-Dual [2]; agonist: LPS (TLR4) 0.1 ug/mL) does the source give for COc1ccccc1-c1cc(Nc2cccc(CS(N)(=O)=O)c2)ncn1 (library stock concentration (final ~1000-fold dilution): 10 mM) here?
A: 2.67

Q: COc1ccccc1-c1cc(Nc2cccc(CS(N)(=O)=O)c2)ncn1 was tested. Which “NF-kB SEAP reporter activity” value (RAW-Dual [1]; [5]) did it give?
A: 2.59

Q: How did the “NF-kB SEAP reporter activity” value (RAW-Dual [1]; [4]) turn out when COc1ccc(S(=O)(=O)Nc2nc(-c3cccc([N+](=O)[O-])c3)cs2)cc1OC was run?
A: 0.988

Q: What about the “NF-kB SEAP reporter activity” value (RAW-Dual [1]; [5]) of the same molecule?
A: 0.991

Q: Which “NF-kB SEAP reporter activity” value (RAW-Dual [2]; agonist: LPS (TLR4) 0.1 ug/mL) does the source give for COc1ccc(S(=O)(=O)Nc2nc(-c3cccc([N+](=O)[O-])c3)cs2)cc1OC (library stock concentration (final ~1000-fold dilution): 10 mM) here?
A: 0.818

Q: And the “NF-kB SEAP reporter activity” value (RAW-Dual [2]; [6])?
A: 0.822

Q: And the “NF-kB SEAP reporter activity” value (RAW-Dual [2]; [7])?
A: 1

Q: And the “NF-kB SEAP reporter activity” value (RAW-Dual [2]; [8])?
A: 1.02

Q: With CCCCCC/C=C\CCCCCCCc1cccc(O)c1C(=O)O as the molecule, how does the “NF-kB SEAP reporter activity” value (RAW-Dual [1]; [4]) read?
A: 1.32

Q: And the “NF-kB SEAP reporter activity” value (RAW-Dual [1]; [5])?
A: 1.37

Q: Which “NF-kB SEAP reporter activity” value (RAW-Dual [2]; agonist: LPS (TLR4) 0.1 ug/mL) does the source give for CCCCCC/C=C\CCCCCCCc1cccc(O)c1C(=O)O (library stock concentration (final ~1000-fold dilution): 10 mM) here?
A: 0.988

Q: And the “NF-kB SEAP reporter activity” value (RAW-Dual [2]; [6])?
A: 0.984

Q: What about the “NF-kB SEAP reporter activity” value (RAW-Dual [2]; [7]) of the same molecule?
A: 0.671

Q: What about the “NF-kB SEAP reporter activity” value (RAW-Dual [2]; [8]) of the same molecule?
A: 0.914

Q: What does the source list for CCOC(=O)C(CCc1ccccc1)NC1CCc2ccccc2N(CC(=O)O)C1=O (centres undefined)?
A: NF-kB SEAP reporter activity (RAW-Dual [1]; [4]): 0.982; NF-kB SEAP reporter activity (RAW-Dual [1]; [5]): 1.04

Q: What does the source list for CCOC(=O)C(CCc1ccccc1)NC1CCc2ccccc2N(CC(=O)O)C1=O (centres undefined) (library stock concentration (final ~1000-fold dilution): 10 mM)?
A: NF-kB SEAP reporter activity (RAW-Dual [2]; agonist: LPS (TLR4) 0.1 ug/mL): 1.25; NF-kB SEAP reporter activity (RAW-Dual [2]; [6]): 1.03; NF-kB SEAP reporter activity (RAW-Dual [2]; [7]): 1.04; NF-kB SEAP reporter activity (RAW-Dual [2]; [8]): 1.05

Q: With CN(C)CCCN1c2ccccc2Sc2ccc(Cl)cc21.Cl as the molecule, how does the “NF-kB SEAP reporter activity” value (RAW-Dual [1]; [4]) read?
A: 0.888

Q: What about the “NF-kB SEAP reporter activity” value (RAW-Dual [1]; [5]) of the same molecule?
A: 0.929

Q: Which results are given for CN(C)CCCN1c2ccccc2Sc2ccc(Cl)cc21.Cl (library stock concentration (final ~1000-fold dilution): 10 mM)?
A: NF-kB SEAP reporter activity (RAW-Dual [2]; agonist: LPS (TLR4) 0.1 ug/mL): 2.03; NF-kB SEAP reporter activity (RAW-Dual [2]; [6]): 0.923; NF-kB SEAP reporter activity (RAW-Dual [2]; [7]): 0.652; NF-kB SEAP reporter activity (RAW-Dual [2]; [8]): 0.962

Q: How did the “NF-kB SEAP reporter activity” value (RAW-Dual [2]; agonist: LPS (TLR4) 0.1 ug/mL) turn out when O=C(C=Cc1ccc(O)cc1)c1ccc(O)cc1O (library stock concentration (final ~1000-fold dilution): 10 mM) was run?
A: 1.05

Q: And the “NF-kB SEAP reporter activity” value (RAW-Dual [2]; [6])?
A: 1.02

Q: What about the “NF-kB SEAP reporter activity” value (RAW-Dual [2]; [7]) of the same molecule?
A: 1.36

Q: And the “NF-kB SEAP reporter activity” value (RAW-Dual [2]; [8])?
A: 1.34

Q: Which “NF-kB SEAP reporter activity” value (RAW-Dual [1]; [4]) does the source give for O=C(C=Cc1ccc(O)cc1)c1ccc(O)cc1O here?
A: 1.22

Q: And the “NF-kB SEAP reporter activity” value (RAW-Dual [1]; [5])?
A: 1.42

Q: With CN(C)c1ccc2nc3ccc(=[N+](C)C)cc-3sc2c1 as the molecule, how does the “NF-kB SEAP reporter activity” value (RAW-Dual [1]; [9]) read?
A: 2.38

Q: What about the “NF-kB SEAP reporter activity” value (RAW-Dual [1]; [10]) of the same molecule?
A: 2.29

Q: What does the source list for CN(C)c1ccc2nc3ccc(=[N+](C)C)cc-3sc2c1 (library stock concentration (final ~1000-fold dilution): 10 mM)?
A: NF-kB SEAP reporter activity (RAW-Dual [3]; agonist: LPS (TLR4) 0.1 ug/mL): 2.45; NF-kB SEAP reporter activity (RAW-Dual [3]; [6]): 2.01; NF-kB SEAP reporter activity (RAW-Dual [3]; [7]): 1.23; NF-kB SEAP reporter activity (RAW-Dual [3]; [8]): 1.33

Reference: the supplement of paper PMC10037445
